# According to the supplement of paper PMC3694890:
# ± gives the uncertainty stated by the source. This is one part of the list. A small y stands for phosphotyrosine.
# Target: GRB2 (endogenous complexes from cell lysate), P62993
# Assay: GRB2 complex binding differential signal (pY peptide minus Ala control peptide) (fluorescence intensity units); higher = stronger GRB2 complex binding
# Conditions: MCF7
# 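Note: phosphopeptide probes on the chip at 1–4 µM, lysate proteins bound in 20 mM Tris pH 7.0 buffer with 140 mM NaCl, 1% Triton X-100 and 5% glycerol.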
row,Binder,GRB2 complex binding differential signal
1,yGMSDP [RET_1062/A1],660 ± 290
2,yGGEKF [PTPN11_66/A1],966 ± 280
3,yTNIKY [PTPN11_546/A1],41300 ± 5400
4,yPNDSV [RET_1090/A1],328 ± 160
5,yANWML [RET_1096/A1],2170 ± 370
6,ySSSGA [RET_687/A1],1360 ± 410
7,yEAAQP [BCAR1_224/A1],2110 ± 370
8,yGACSQ [RET_791/A1],234 ± 220
9,yCEIPR [RASA3_66/A1],2950 ± 970
10,yDLYGG [PTPN11_63/A1],217 ± 230
11,yGNITY [PTPN6_536/A1],6120 ± 1800
12,yLDLAA [RET_1015/A1],133 ± 140
13,yNQPDW [Q59GD8_238/A1],-113 ± 250
14,yTLVRE [RASH_157/A1],1110 ± 340
15,yVAIAQ [PTPN6_509/A1],1610 ± 440
16,yDDGLS [RET_1029/A1],340 ± 200
17,yNTIRR [RASA1_460/A1],-124 ± 370

row,Binder,GRB2 complex binding differential signal
1,ySVTNC [PTPN6_377/A1],401 ± 250
2,yENLHT [PTPN6_564/A1],30400 ± 8500
3,yAKYGS [RET_806/A1],1480 ± 240
4,yDIPRH [BCAR1_234/A1],2130 ± 820
5,yWEIEA [RAF1_341/A1],-67.9 ± 300
6,yCNIYL [RASA1_615/A1],1750 ± 960
7,yYWEIE [RAF1_340/A1],68.1 ± 320
8,yDRLRP [RAC1_64/A1],1740 ± 830
9,yYDLYG [PTPN11_62/A1],369 ± 1800
10,yENVGL [PTPN11_584/A1],54000 ± 5200
11,yRFIYM [PTPN11_515/A1],-175 ± 1800
12,yMEGVN [RASA1_952/A1],764 ± 280
13,yIATQG [PTPN11_327/A1],1620 ± 390
14,ySTPHA [RAF1_232/A1],7180 ± 6800
15,yVYEAA [BCAR1_222/A1],290 ± 1200
16,ySAVSR [PVR_398/A1],8930 ± 1700

# Same assay, conditions: MCF10A
row,Binder,GRB2 complex binding differential signal
1,yGMSDP [RET_1062/A1],154 ± 220
2,yGGEKF [PTPN11_66/A1],505 ± 320
3,yTNIKY [PTPN11_546/A1],22700 ± 2500
4,yPNDSV [RET_1090/A1],639 ± 240
5,yANWML [RET_1096/A1],727 ± 280
6,ySSSGA [RET_687/A1],2090 ± 310
7,yEAAQP [BCAR1_224/A1],1750 ± 430
8,yGACSQ [RET_791/A1],-57.8 ± 170
9,yCEIPR [RASA3_66/A1],1370 ± 380
10,yDLYGG [PTPN11_63/A1],-75.1 ± 160
11,yGNITY [PTPN6_536/A1],1790 ± 1800
12,yLDLAA [RET_1015/A1],149 ± 240
13,yNQPDW [Q59GD8_238/A1],158 ± 220
14,yTLVRE [RASH_157/A1],778 ± 250
15,yVAIAQ [PTPN6_509/A1],1470 ± 480
16,yDDGLS [RET_1029/A1],46.7 ± 200
17,yNTIRR [RASA1_460/A1],378 ± 260

row,Binder,GRB2 complex binding differential signal
1,ySVTNC [PTPN6_377/A1],245 ± 230
2,yENLHT [PTPN6_564/A1],18700 ± 5400
3,yAKYGS [RET_806/A1],907 ± 310
4,yDIPRH [BCAR1_234/A1],2230 ± 720
5,yWEIEA [RAF1_341/A1],-57.7 ± 320
6,yCNIYL [RASA1_615/A1],1050 ± 230
7,yYWEIE [RAF1_340/A1],-125 ± 370
8,yDRLRP [RAC1_64/A1],1570 ± 410
9,yYDLYG [PTPN11_62/A1],75.8 ± 280
10,yENVGL [PTPN11_584/A1],41600 ± 5600
11,yRFIYM [PTPN11_515/A1],287 ± 420
12,yMEGVN [RASA1_952/A1],500 ± 400
13,yIATQG [PTPN11_327/A1],1530 ± 210
14,ySTPHA [RAF1_232/A1],4510 ± 1300
15,yVYEAA [BCAR1_222/A1],711 ± 1600
16,ySAVSR [PVR_398/A1],3410 ± 1000

# Same assay, conditions: MDA-MB-231
row,Binder,GRB2 complex binding differential signal
1,yGMSDP [RET_1062/A1],657 ± 420
2,yGGEKF [PTPN11_66/A1],509 ± 430
3,yTNIKY [PTPN11_546/A1],9610 ± 820
4,yPNDSV [RET_1090/A1],348 ± 590
5,yANWML [RET_1096/A1],1590 ± 360
6,ySSSGA [RET_687/A1],1070 ± 370
7,yEAAQP [BCAR1_224/A1],2390 ± 920
8,yGACSQ [RET_791/A1],295 ± 360
9,yCEIPR [RASA3_66/A1],546 ± 340
10,yDLYGG [PTPN11_63/A1],254 ± 300
11,yGNITY [PTPN6_536/A1],2710 ± 2900
12,yLDLAA [RET_1015/A1],686 ± 520
13,yNQPDW [Q59GD8_238/A1],-28.9 ± 420
14,yTLVRE [RASH_157/A1],1190 ± 460
15,yVAIAQ [PTPN6_509/A1],924 ± 410
16,yDDGLS [RET_1029/A1],358 ± 330
17,yNTIRR [RASA1_460/A1],112 ± 370

row,Binder,GRB2 complex binding differential signal
1,ySVTNC [PTPN6_377/A1],405 ± 260
2,yENLHT [PTPN6_564/A1],19900 ± 3400
3,yAKYGS [RET_806/A1],613 ± 420
4,yDIPRH [BCAR1_234/A1],627 ± 660
5,yWEIEA [RAF1_341/A1],402 ± 780
6,yCNIYL [RASA1_615/A1],1960 ± 520
7,yYWEIE [RAF1_340/A1],198 ± 260
8,yDRLRP [RAC1_64/A1],511 ± 270
9,yYDLYG [PTPN11_62/A1],486 ± 310
10,yENVGL [PTPN11_584/A1],27900 ± 3400
11,yRFIYM [PTPN11_515/A1],1100 ± 560
12,yMEGVN [RASA1_952/A1],560 ± 360
13,yIATQG [PTPN11_327/A1],619 ± 350
14,ySTPHA [RAF1_232/A1],3930 ± 400
15,yVYEAA [BCAR1_222/A1],858 ± 470
16,ySAVSR [PVR_398/A1],2270 ± 390

# Same assay, conditions: T47D
row,Binder,GRB2 complex binding differential signal
1,yGMSDP [RET_1062/A1],841 ± 1100
2,yGGEKF [PTPN11_66/A1],279 ± 980
3,yTNIKY [PTPN11_546/A1],41800 ± 14000
4,yPNDSV [RET_1090/A1],2270 ± 960
5,yANWML [RET_1096/A1],9650 ± 2400
6,ySSSGA [RET_687/A1],1450 ± 1600
7,yEAAQP [BCAR1_224/A1],4010 ± 1200
8,yGACSQ [RET_791/A1],710 ± 1600
9,yCEIPR [RASA3_66/A1],162 ± 1100
10,yDLYGG [PTPN11_63/A1],7.15 ± 860
11,yGNITY [PTPN6_536/A1],12300 ± 6200
12,yLDLAA [RET_1015/A1],439 ± 1500
13,yNQPDW [Q59GD8_238/A1],247 ± 1100
14,yTLVRE [RASH_157/A1],1580 ± 1300
15,yVAIAQ [PTPN6_509/A1],1250 ± 1200
16,yDDGLS [RET_1029/A1],198 ± 1000
17,yNTIRR [RASA1_460/A1],310 ± 980

row,Binder,GRB2 complex binding differential signal
1,ySVTNC [PTPN6_377/A1],41.1 ± 2200
2,yENLHT [PTPN6_564/A1],23500 ± 8300
3,yAKYGS [RET_806/A1],1400 ± 1400
4,yDIPRH [BCAR1_234/A1],985 ± 1100
5,yWEIEA [RAF1_341/A1],372 ± 1000
6,yCNIYL [RASA1_615/A1],7950 ± 1900
7,yYWEIE [RAF1_340/A1],-165 ± 1700
8,yDRLRP [RAC1_64/A1],1170 ± 1300
9,yYDLYG [PTPN11_62/A1],752 ± 1500
10,yENVGL [PTPN11_584/A1],39000 ± 12000
11,yRFIYM [PTPN11_515/A1],4340 ± 1500
12,yMEGVN [RASA1_952/A1],259 ± 940
13,yIATQG [PTPN11_327/A1],384 ± 940
14,ySTPHA [RAF1_232/A1],5800 ± 1500
15,yVYEAA [BCAR1_222/A1],746 ± 2500
16,ySAVSR [PVR_398/A1],8220 ± 1900
